Measured values from PubChem BioAssay (EPA / NIEHS).
The entries are a selection whose mix differs from that of the whole data set. Inconclusive results are not listed. Active and inactive are the calls of the source. Rule for the calls: active = hit-call score of the fitted dose curve at least 0.9, where 1 is the maximum; inconclusive = response in the unintended direction; inactive = score below 0.9.

molecular target: human Peroxisome Proliferator-activated Receptor alpha (PPARa), PPARA (gene 5465) (UniProt Q07869); assay: ATG_PPARa_TRANS: Attagene TRANS-FACTORIAL HepG2 Assay for human Peroxisome Proliferator-activated Receptor alpha (PPARa) (AID 2283001);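 for AC50: potency for gain of reporter signal over DMSO so agonist or activator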
UniProt Q07869, sequence (Q07869 whole entry, looked up): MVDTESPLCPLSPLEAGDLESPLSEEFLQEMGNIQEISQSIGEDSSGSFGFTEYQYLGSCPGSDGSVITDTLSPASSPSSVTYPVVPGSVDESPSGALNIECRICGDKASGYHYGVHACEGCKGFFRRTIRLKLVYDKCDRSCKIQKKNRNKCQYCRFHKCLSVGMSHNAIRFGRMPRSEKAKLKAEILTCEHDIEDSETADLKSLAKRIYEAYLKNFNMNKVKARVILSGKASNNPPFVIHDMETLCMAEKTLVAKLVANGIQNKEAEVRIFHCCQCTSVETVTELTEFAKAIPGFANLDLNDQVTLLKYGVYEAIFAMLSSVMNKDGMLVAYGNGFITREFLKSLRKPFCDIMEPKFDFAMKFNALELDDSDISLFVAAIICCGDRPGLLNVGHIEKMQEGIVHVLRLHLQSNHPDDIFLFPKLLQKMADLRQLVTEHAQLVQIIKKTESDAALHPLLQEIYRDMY
Procedure: ATG_TRANS is a cell-based, multiplexed-readout assay that uses HepG2, a human liver cell line, with measurements taken at 24 hours after chemical dosing in a 24-well plate.ATG_PPARa_TRANS is one of 30 assay component(s) measured or calculated from the ATG_TRANS assay. It is designed to make measurements of mRNA induction, a form of inducible reporter, as detected with fluorescence intensity signals by Reverse transcription polymerase chain reaction (RT-PCR) and Capillary electrophoresis technology.Data from the assay component ATG_PPARa_TRANS was analyzed into 1 assay endpoint. This assay endpoint, ATG_PPARa_TRANS, was analyzed in the positive analysis fitting direction relative to DMSO as the negative control and baseline of activity. Using a type of inducible reporter, measures of mRNA for gain-of-signal activity can be used to understand the reporter gene at the transcription factor-level as they relate to the gene PPARA. Furthermore, this assay endpoint can be referred to as a primary readout, because this assay has produced multiple assay endpoints where this one serves a reporter gene function. To generalize the intended target to other relatable targets, this assay endpoint is annotated to the nuclear receptor intended target family, where the subfamily is non-steroidal.
Human liver HepG2 cells are transiently transfected with multiple reporter transcription units (MRTUs) in 6-well plates using FuGene 6 reagent (Roche; 3 ml FuGene/1 mg DNA). The MRTU constructs are regulated by a cis-regulating element (promoter). […] A major difference between the CIS and TRANS system is that in CIS activities of endogenous TFs are measured, whereas the TRANS assay evaluates changes in activities of exogenous, chimeric NR-Gal4 proteins. […] At the end of 24 hour incubation, total RNA was isolated using TriZol reagent (Invitrogen). The isolated RNA is then reverse-transcribed using oligo(dT) primer and Mo-MLV reverse transcriptase (Invitrogen) with DNAse I (Ambion) treatment for 30 min. The one-tenth of the produced cDNA was amplified by PCR using Taq DNA polymerase (Invitrogen) and two reporter sequence-specific primers. The PCR products were fluorescently labeled by primer extension with 6-arboxyfluorescein (6-FAM) 5'-labeled reporter sequence-specific primer (2 min at 95 C, 20 s at 68 C and 10 min at 72 C) and these products were digested with 5U of HpaI (New England Biolabs) for 2h at 37 C. The fragments were purified using Qiaquick PCR columns (Qiagen), analyzed on an ABI 3130xL genetic analyzer (Applied Biosystems) with peak positions identified by using a set of X-rhodamine (ROX)-labeled MapMarker1000 molecular weight standards (BioVentures). The raw capillary electrophoresis data was processed using Attagraph software (Attagene).

Q: For `O=C(Nc1ccc([N+](=O)[O-])cc1Cl)c1cc(Cl)ccc1O`, which outcome is on record?
A: inactive

Q: With `CCCCCCCCCCN` as the compound, how does the AC50 read?
A: active: 33.4 µM

Q: Which outcome does the source give for `O=C(CC(=O)c1ccccc1)c1ccccc1` here?
A: inactive

Q: With `NC(=NCCCCCCN=C(N)/N=C(\N)Nc1ccc(Cl)cc1)/N=C(\N)Nc1ccc(Cl)cc1` as the compound, how does the outcome read?
A: inactive

Q: With `O=c1cc(-c2ccc(O)cc2)oc2cc(O)cc(O)c12` as the compound, how does the outcome read?
A: inactive

Q: With `Cc1ccc(-c2cc(C(F)(F)F)nn2-c2ccc(S(N)(=O)=O)cc2)cc1` as the compound, how does the outcome read?
A: inactive

Q: `CCCCCCCCCC(=O)O` was tested. Which AC50 did it give?
A: active: 20.7 µM

Q: How did the outcome turn out when `CC(Cc1ccc(O)c(O)c1)C(C)Cc1ccc(O)c(O)c1` (stereo unspecified) was run?
A: inactive

Q: `O=c1c(-c2ccc(O)cc2)coc2cc(O)cc(O)c12` was tested. Which AC50 did it give?
A: active: 43.3 µM

Q: How did the outcome turn out when `C=C(C)C(=O)OCC(CC)(COC(=O)C(=C)C)COC(=O)C(=C)C` was run?
A: inactive

Q: With `CCCCCCCC(=O)O` as the compound, how does the outcome read?
A: inactive
